Results reported in US20210047304A1, “Bromodomain Inhibitors” (AbbVie Inc., priority 2016, published 2021).

Target: BRD4 (BDII_E352-M457) (Homo sapiens, UniProt O60885)
Assay: TR-FRET bromodomain binding assay, BRD4 BDII

Ki [nM]	Compound
4.64	Cc1cc(F)cc(C)c1Oc1ccc(C(C)(C)O)cc1-c1cn(C)c(=O)cc1O[C@H]1CC[C@H](N2C(=O)CC(C)(C)C2=O)CC1 [Example 90, 1-[trans-4-({5-[2-(4-fluoro-2,6-dimethylphenoxy)-5-(2-hydroxypropan-2-yl)phenyl]-1-methyl-2-oxo-1,2-dihydropyridin-4-yl}oxy)cyclohexyl]-3,3-dimethylpyrrolidine-2,5-dione]
6.18	Cc1cc(F)cc(C)c1Oc1ccc(C(C)(C)O)cc1-c1cn(C)c(=O)cc1O[C@H]1CC[C@H](NC(=O)C(C)(C)CCO)CC1 [Example 47, N-[trans-4-({5-[2-(4-fluoro-2,6-dimethylphenoxy)-5-(2-hydroxypropan-2-yl)phenyl]-1-methyl-2-oxo-1,2-dihydropyridin-4-yl}oxy)cyclohexyl]-4-hydroxy-2,2-dimethylbutanamide]
2.19	Cc1cc(F)cc(C)c1Oc1ccc(C(C)(C)O)cc1-c1cn(C)c(=O)cc1O[C@H]1CC[C@H](N2C(=O)[C@@H](C)N(C)C2=O)CC1 [Example 81, (5R)-3-[trans-4-({5-[2-(4-fluoro-2,6-dimethylphenoxy)-5-(2-hydroxypropan-2-yl)phenyl]-1-methyl-2-oxo-1,2-dihydropyridin-4-yl}oxy)cyclohexyl]-1,5-dimethylimidazolidine-2,4-dione]
1.39	Cc1cc(F)cc(C)c1Oc1ccc(C(C)(C)O)cc1-c1cn(C)c(=O)cc1O[C@H]1CC[C@H](N2CCCNC2=O)CC1 [Example 31, 1-[trans-4-({5-[2-(4-fluoro-2,6-dimethylphenoxy)-5-(2-hydroxypropan-2-yl)phenyl]-1-methyl-2-oxo-1,2-dihydropyridin-4-yl}oxy)cyclohexyl]tetrahydropyrimidin-2(1H)-one]
7.74	Cc1cc(F)cc(C)c1Oc1ncc(C(C)(C)O)cc1-c1cn(C)c(=O)cc1O[C@H]1CC[C@H](N2CCCC2=O)CC1 [Example 60, 2′-(4-fluoro-2,6-dimethylphenoxy)-5′-(2-hydroxypropan-2-yl)-1-methyl-4-{[trans-4-(2-oxopyrrolidin-1-yl)cyclohexyl]oxy}[3,3′-bipyridin]-6(1H)-one]
6.01	CNC(=O)N[C@H]1CC[C@H](Oc2cc(=O)n(C)cc2-c2cc(C(C)(C)O)ccc2Oc2c(C)cc(F)cc2C)CC1 [Example 128, N-[trans-4-({5-[2-(4-fluoro-2,6-dimethylphenoxy)-5-(2-hydroxypropan-2-yl)phenyl]-1-methyl-2-oxo-1,2-dihydropyridin-4-yl}oxy)cyclohexyl]-N′-methylurea]
94.7	Cc1cc(F)cc(C)c1Oc1ccc(C(C)(C)O)cc1-c1cn(C)c(=O)cc1O[C@H]1CC[C@H](n2cccnc2=O)CC1 [Example 143, 1-[trans-4-({5-[2-(4-fluoro-2,6-dimethylphenoxy)-5-(2-hydroxypropan-2-yl)phenyl]-1-methyl-2-oxo-1,2-dihydropyridin-4-yl}oxy)cyclohexyl]pyrimidin-2(1H)-one]
0.878	CC(=O)N[C@H]1CC[C@H](Oc2cc(=O)n(C)cc2-c2cc(C(C)(C)O)ccc2Oc2c(C)cc(C(C)(C)O)cc2C)CC1 [Example 18, N-{trans-4-[(5-{5-(2-hydroxypropan-2-yl)-2-[4-(2-hydroxypropan-2-yl)-2,6-dimethylphenoxy]phenyl}-1-methyl-2-oxo-1,2-dihydropyridin-4-yl)oxy]cyclohexyl}acetamide]
32.9	Cc1cc(F)cc(C)c1Oc1ccc(C(C)(C)O)cc1-c1cn(C)c(=O)cc1NC1CCC(C)(O)CC1 (stereo not drawn) [Example 23, 5-[2-(4-fluoro-2,6-dimethylphenoxy)-5-(2-hydroxypropan-2-yl)phenyl]-4-[(trans-4-hydroxy-4-methylcyclohexyl)amino]-1-methylpyridin-2(1H)-one]
9.67	Cc1cc(F)cc(C)c1Oc1ccc(C(C)(C)O)cc1-c1cn(C)c(=O)cc1O[C@H]1CC[C@H](N2C(=O)N(C)C(C)(C)C2=O)CC1 [Example 142, 3-[trans-4-({5-[2-(4-fluoro-2,6-dimethylphenoxy)-5-(2-hydroxypropan-2-yl)phenyl]-1-methyl-2-oxo-1,2-dihydropyridin-4-yl}oxy)cyclohexyl]-1,5,5-trimethylimidazolidine-2,4-dione]
148	CCNC(=O)[C@H]1CC[C@@H](Oc2cc(=O)n(C)cc2-c2cc(C(C)(C)O)ccc2Oc2c(C)cc(F)cc2C)CC1 [Example 76, cis-N-ethyl-4-({5-[2-(4-fluoro-2,6-dimethylphenoxy)-5-(2-hydroxypropan-2-yl)phenyl]-1-methyl-2-oxo-1,2-dihydropyridin-4-yl}oxy)cyclohexane-1-carboxamide]
91.9	CC(=O)N1CCC(Nc2cc(=O)n(C)cc2-c2cc(C(C)(C)O)ccc2Oc2c(C)cccc2C)C1 (stereo not drawn) [Example 14, 4-[(1-acetylpyrrolidin-3-yl)amino]-5-[2-(2,6-dimethylphenoxy)-5-(2-hydroxypropan-2-yl)phenyl]-1-methylpyridin-2(1H)-one]
3.23	Cc1cc(F)cc(C)c1Oc1ccc(C(C)(C)O)cc1-c1cn(C)c(=O)cc1O[C@H]1CC[C@H](NC(=O)C2(C)CC(=O)C2)CC1 [Example 87, N-[trans-4-({5-[2-(4-fluoro-2,6-dimethylphenoxy)-5-(2-hydroxypropan-2-yl)phenyl]-1-methyl-2-oxo-1,2-dihydropyridin-4-yl}oxy)cyclohexyl]-1-methyl-3-oxocyclobutane-1-carboxamide]
5.51	CCNC(=O)[C@H]1CC[C@H](Oc2cc(=O)n(C)cc2-c2cc(C(C)(C)O)ccc2Oc2c(C)cc(F)cc2C)CC1 [Example 63, trans-N-ethyl-4-({5-[2-(4-fluoro-2,6-dimethylphenoxy)-5-(2-hydroxypropan-2-yl)phenyl]-1-methyl-2-oxo-1,2-dihydropyridin-4-yl}oxy)cyclohexane-1-carboxamide]
4.08	Cc1cc(F)cc(C)c1Oc1ccc(C(C)(C)O)cc1-c1cn(C)c(=O)cc1O[C@H]1CC[C@H](N2C(=O)O[C@@H](C)C2=O)CC1 [Example 92, (5S)-3-[trans-4-({5-[2-(4-fluoro-2,6-dimethylphenoxy)-5-(2-hydroxypropan-2-yl)phenyl]-1-methyl-2-oxo-1,2-dihydropyridin-4-yl}oxy)cyclohexyl]-5-methyl-1,3-oxazolidine-2,4-dione]
2.04	Cc1cc(F)cc(C)c1Oc1ccc(C(C)(C)O)cc1-c1cn(C)c(=O)cc1O[C@H]1CC[C@H](C(C)(C)O)CC1 [Example 67, 5-[2-(4-fluoro-2,6-dimethylphenoxy)-5-(2-hydroxypropan-2-yl)phenyl]-4-{[trans-4-(2-hydroxypropan-2-yl)cyclohexyl]oxy}-1-methylpyridin-2(1H)-one]
170	CC(=O)NC[C@@H]1CC[C@H](Oc2cc(=O)n(C)cc2-c2cc(C(C)(C)O)ccc2Oc2c(C)cc(F)cc2C)[C@H]1C [Example 22, N-{[(1R,2S,3S)-3-({5-[2-(4-fluoro-2,6-dimethylphenoxy)-5-(2-hydroxypropan-2-yl)phenyl]-1-methyl-2-oxo-1,2-dihydropyridin-4-yl}oxy)-2-methylcyclopentyl]methyl}acetamide]
1.37	Cc1cc(F)cc(C)c1Oc1ccc(C(C)(C)O)cc1-c1cn(C)c(=O)cc1O[C@H]1CC[C@H](N2CCCC2=O)CC1 [Example 24, 5-[2-(4-fluoro-2,6-dimethylphenoxy)-5-(2-hydroxypropan-2-yl)phenyl]-1-methyl-4-{[trans-4-(2-oxopyrrolidin-1-yl)cyclohexyl]oxy}pyridin-2(1H)-one]
